Measurements as given in the RNAGym collection of RNA variant scans (doi:10.7554/elife.90254).
Read counts are not given, so values of variants with three or more changes are uncertain.

B1: LINE1-mini (parent)
chain: GGCAGAGCUCAACACAGCGUGGCAAAGUGGCUGUGGCUAGACUGCC

Variants of: B1
Test: self-cleavage, relative activity (ratio to wild type); higher = more cleavage; in vitro, sequencing; the parent is a self-cleaving ribozyme

Row | Variant | self-cleavage
1 | GACAGAGCUCAACACAGCGUGGCAAAGUGGCUGUGGCGAGACUACC | 0.07
2 | GCCCGAGCUCUACAUAGCGUGGCAAAGUGGCUGUGGUUUGACUGCC | 0.01
3 | GCCCGAGCUCAGCACAGCGUGCCAAAGUAGCUGUGGCUAGACUGCC | 0.05
4 | GCCCGAGCUCAACACUGCGUGGCAAAGUGGCUGUGGCUAGACUGCC | 0.04
5 | GCCCGAGCUCAACACAGCGUGGCCAAGUGAGUGUGGCUAGACUACU | 0.02
6 | GCCCGAGCUCAACACAGCGUGUCAAAGUGGCUGUGGCUAGACUGCC | 0.03
7 | GCCGGUGCGCAACACAGCGUGGCAAAGUUGCUGUGGCUAGACUGCC | 0.08
8 | GCCGGAGCUCAACACAGCGUGGCAAAGUGGCUGUUGCUAGACUGCC | 0.02
9 | GCCGGAGCUCAACACAGCGUGGCAAAGUGGCUGUGGCUAAACUGCC | 0.01
10 | GCCGGAGCUCAACACAGCGUGGCAAAGGGCCUGUGGCUAGACUGGC | 0.04
11 | GCCUGAGCUAAACACAGCGUGGCAAAGUGUCUGUGGAUUGACUGCC | 0
12 | GCCAGCGCUCAGCACAGGGUGGCAAAUUGGCUGCGGCUAGACUGCC | 0.16
13 | GCCAGCGCUCAACACAGCGUGGCAAUGUGGCUGUGGCUAGUCUGCC | 0.08
14 | GCCAGCGCUCAACACAGCGUGGCAAAGUGGGUGUGGCUGGACUGCC | 0.03
15 | GCCAGCGCUCAACACAGCGUGUCAAAGUGGCUGUGGCUAGACUGCA | 0.16
16 | GCCAGCGCUCAACACAGCGUGGCAAAGUGGCUGUCGCUAGACUGCC | 0.06
17 | GCCAGGGCUCCACAAAGCGUGGCAAAGUGGCUGUGGCUAGACUGCC | 0.01
18 | GCCAGGGCUCAACACAGCGUGGCAAUGUGGCUGUAGAUAGACUGCC | 0.03
19 | GCCAGGGCUCAACACAACGUGGCAAAGUGGCUGUGGAUAGACUGCC | 0.01

Row | Variant | self-cleavage
20 | GCCAGUGCUUAACACAGCGUGGCAAAGUGGCUGUGGCUAGUCUGCC | 0.07
21 | GCCAGUUCUCAACACCGCGUAGCAAAGUGGCUGUGGCUAGAAUGCC | 0.76
22 | GCCAGAGCUCCACACCGCGGGGCAAAGUGGCUGUGGCUAGACUGCC | 0.01
23 | GCCAGAGCUCCACACAGCGUGGCCAAGUGGCUGUGGCUAGACUGCC | 0.01
24 | GCCAGAGCUCCAGACAGCGUGGCAAAGUGGCUGUGGCUAGACUGCC | 0.02
25 | GCCAGAGCUCCACACACCGUGGCAAAGUGGCUGUGGCUAGACUGCA | 0.02
26 | GCCAGAGCUCCACACAGCAUGGCAAAGUGGCUGUGGCUAGACUGCC | 0.01
27 | GCCAGAGCUCCACACAGCGUGGCAAAGUGGCUGUGGCAAGACUGCC | 0.01
28 | GCCAGAGCUCGACACAGCGUGGUAAAGUGGCUGUUGCUAGACUGCC | 0.02
29 | GCCAGAGCUCGACACAGCGUGGCAAAGUGGCUGUGGCUAUACUGCC | 0.01
30 | GCCAGAGCUCGACACAGCGUGGCAAAGUGGCUGUGGCGAGAAUGCC | 0
31 | GCCAGAGCUCGACACAGCGUGGCAAAGUGGCUGUGGCUAGACAGCC | 0
32 | GCCAGAGCUCUACCCAGCGUGGGAAAGUGGCUGUGGCUGGGCUGCC | 0
33 | GCCAGAGCUCUACACAGCGUGACAAACUGGCAGUGGCUAGACUGCC | 0.01
34 | GCCAGAGCUCUACACAGCGUGGCAAAGUAGCUGUGGCUAGAAUGCC | 0.01
35 | GCCAGAGCUCUACACAGCGUGGCAAAGAGGCUGUGGCUAGACUGAC | 0.01
36 | GCCAGAGCUCACAACAGCGUGGCAAAAUGGUUUUGGCUAGACUGCC | 0.05
37 | GCCAGAGCUCACCACAGCGUGGAAAAGUGGGUGUGUCUUGACUGCC | 0.01
38 | GCCAGAGCUCACCACAUCGUGGCAAAGUGGCAGUGGCUAGACUGCC | 0.05

Row | Variant | self-cleavage
39 | GCCAGAGCUCACCACAGCGUGACAAAGUGGCUGUGGCUAGACUGCC | 0.01
40 | GCCAGAGCUCAUCACAGCGUGGCAAAGUGGAUGUGGCUCGACUGCC | 0.02
41 | GCCAGAGCUCAUCACAGCGUGGCAAAGUGGCUGUGGCUAGACUGUC | 0.12
42 | GCCAGAGCUCAUCACAGCAUGGCAAAGUGGAUGUGGCUAGACUGCC | 0.04
43 | GCCAGAGCUCAUCACAGCGUGGCAAAAUGGAUGUGGCUAAACUGCC | 0.04
44 | GCCAGAGCUCAACCCAGGGUGGCAAAGUGGCUGUGGCUAGACUGCU | 0.02
45 | GCCAGAGCUCAACCCAGUGUGGCAAAAUGGCUCUGGCUAGAGUGCC | 0.03
46 | GCCAGAGCUCAACGCAGCGUGGCCAAGUGGCUGUGGCUAGACUGCC | 0.02
47 | GCCAGAGCUCAACGCAGCGUGGCAAAGUGGCUGUGGUUAGACUGCC | 0.06
48 | GCCAGAGCUCAACGCAUCGUGGCAAAGUGGCUGUAGAUAGGCUGCC | 0.01
49 | GCCAGAGCUCAACGCAGCGUGGCAAAUUGGCUGUGGCUAGACUGUC | 0.01
50 | GCCAGAGCUCAACUCAGCGUGGCAAAUUGGCUUUGGCUCGAAUGCC | 0.03
51 | GCCAGAGCUCAACACGGAGUGGCAAAGUGGCUGUGGCUAGACUGCC | 0.04
52 | GCCAGAGCUCAACACGGCGUGGCAAAGUGAUUGUGGCUAGGCUGCC | 0.02
53 | GCCAGAGCUCAACACUGCGUGGCUAAGUGGCUGUGGCUAGACUGCC | 0.03
54 | GCCAGAGCUCAACACUGCGUGGGUAAGUGGCUAUGGCUAGACUACC | 0.09
55 | GCCAGAGCUCAACACUUCGUGGCCAAGUGGCCGUGGCUAGACUGCC | 0.08
56 | GCCAGAGCUCAACACUGCGUGGCAAAGUGGCUGUGGCUAGACAGCC | 0.03
